# Data: the supplement of paper PMC12889115
# This is one part of the list. Repeats are few or missing, and single values can be far off.
# Tested on: Salmonella enterica serovar Typhimurium SL1344
# Experiment: bacterial growth OD600 after 18 h in MHB with 0.5 µg/mL polymyxin B; higher = more bacterial growth (less inhibition)
# Details: 25 µM; polymyxin B 0.5 µg/mL; system: broth
# Experimental: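 Secondary screen of the 553 primary hits at 25 µM. (i) S. Typhimurium SL1344 grown in Mueller-Hinton broth with 0.5 µg/mL polymyxin B, OD600 read after 18 h. (ii) SAFIRE assay: RAW 264.7 macrophages infected with S. Typhimurium sifB::gfp (MOI 30); compound added 2 h post-infection; cells fixed at 18 h; GFP-positive pixel fraction per macrophage imaged by confocal microscopy and expressed as % of DMSO control.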
# 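Note: polymyxin B level opens the outer membrane while sparing the inner membrane, with novobiocin wells as reference growth inhibitor.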
row,SMILES,bacterial growth OD600
1,CCCCn1c(CN2CCCC(COC)C2)cnc1S(=O)(=O)CCCC(C)C (centres undefined),0.002
2,O=C(C1CC12CCCCC2)N1CCc2onc(-c3ccccc3F)c2C1 (centres undefined),0
3,O=C(c1cccc2ccccc12)C1CCCN(C(=O)c2ccc3c(c2)OCO3)C1 (centres undefined),0.002
4,CSc1ccccc1C(=O)NCc1c(C)ncc2c1CCN(C(=O)c1cc3ccccc3o1)C2,-0.006
5,c1ccc(Cc2noc(-c3ccc(NC4CCSC4)nc3)n2)cc1 (centres undefined),0.002
6,O=C(c1cc2ccccc2s1)N1CCCC(Nc2ccc3c(c2)OCCO3)C1 (centres undefined),0.004
7,CCOC(=O)C1(Cc2cccc(Cl)c2)CCCN(Cc2nccn2CC)C1 (centres undefined),0.003
8,COc1ccc(CC2(CCC(=O)NCCc3ccccc3C(F)(F)F)CCC(=O)N2)c2ccccc12 (centres undefined),-0.049
9,O=C(CCC1(Cc2ccc(F)cc2)CCC(=O)N1)NC(c1ccccc1)c1ccc(Cl)cc1 (centres undefined),0
10,OCC1(Cc2ccccc2F)CCCN(Cc2cccc3ccccc23)C1 (centres undefined),-0.012
11,O=C(c1coc(COc2ccc3c(c2)OCO3)n1)N1CC[C@@H]2CCCC[C@H]2C1,0.691
12,CC(=O)c1ccc(F)c(-c2cc(C)cc3c2OC(CNC(=O)/C=C/c2ccccn2)C3)c1 (centres undefined),-0.001
13,CN(Cc1ccccc1)C1(C(=O)NCCc2c[nH]cn2)Cc2ccccc2C1,0.006
14,COCC(=O)Nc1cnn(-c2cccc(C(=O)N3CCc4c([nH]c5ccccc45)C3C(C)C)c2)c1 (centres undefined),0
